Laboratory results from the CheMixHub viscosity set.
This continues a long series; more values of the same kind are listed elsewhere.

Experiment: xn = mol fraction of the nth substance listed
Conditions: 318.15 K, 101 kPa

OCCCOCCCO + NCCN
Conditions	viscosity [mPa·s]
x1 = 0.1611	2.11
x1 = 0.1943	2.51
x1 = 0.23	3.06
x1 = 0.2682	3.73
x1 = 0.3094	4.64
x1 = 0.3538	5.8
x1 = 0.4019	7.31
x1 = 0.4541	9.03
x1 = 0.5111	11.2
x1 = 0.5734	13.6
x1 = 0.6418	16
x1 = 0.7174	18.2
x1 = 0.8013	19.9
x1 = 0.8949	20.8
